According to the supplement of paper PMC10126150:
Sequences with one replicate were seen in a single cluster, so their values are uncertain.

Tested on: ATP
Experiment: switch fluorescence ratio, 500 uM ATP over buffer (Cy3 cluster intensity, sum of 5 cycles each) (fold (ratio)); higher = stronger signal-on switching upon ATP binding; sequences stand for … in TCGTCGGCAGCGTCAGATGTGTATAAGAGACAGTTTTTTTTTTTTTTTTTTTTTTTTT…TC
Conditions: aptamer strand: ATP DNA aptamer (quencher-CACCTGGGGGAGTATTGCGGAGGAAGG + anchor), 100 nM annealed; ATP concentration: 500 uM; one replicate
Outline: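 Cy3-labelled switching-strand clusters on a modified Illumina MiSeq flow-cell were annealed to 100 nM quencher-labelled ATP aptamer and imaged first in selection buffer, then after 15 min with 500 uM ATP at 22 °C. NaOH stripping and re-annealing separated each of five buffer/ATP cycles, and clusters outside 100-1000 RFU were excluded. The fluorescence ratio sums target-cycle Cy3 intensity over buffer-cycle Cy3 intensity per cluster and averages it per switch-domain sequence.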
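Further: ATP exposure 15 min at 22 °C before imaging.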

Row | Sequence | switch fluorescence ratio
1 | CTGCATCACT | 1.59
2 | GAAAGGCCA | 1.07
3 | GTTATAAATA | 1.02
4 | TCGTTCGGTA | 1.01
5 | CGAACTGAAC | 1.15
6 | AAAAAGGCTC | 1.03
7 | AGACTGTAAT | 1.05
8 | TCGAACGTAC | 1.75
9 | TAAGCATTTT | 0.989
10 | AGGCAAAG | 1.21
11 | GGCTTAAAAC | 0.973
12 | TACAGTATTA | 1.04
13 | GCCTAACTGG | 0.955
14 | AGAAAAAAA | 0.979
15 | AGGGATTCCA | 1.01
16 | TGACGATTGG | 1
17 | AGTAAGGGAA | 1.01
18 | CGGTATTTTG | 1.05
19 | TTAAAGAAGC | 1.04
20 | GAGTCTGCAT | 3.12
21 | AAGAGCCGCT | 0.996
22 | AATACTAATG | 0.987
23 | CAGACGTATT | 1.15
24 | ACCGCGCGCC | 1.1
25 | TACGGCATTG | 1.01
26 | GACCCCGGTC | 0.992

Row | Sequence | switch fluorescence ratio
27 | TAAGGTCACG | 1.01
28 | ATATCATTCC | 1.42
29 | GGTAGCA | 0.976
30 | CTTTAGGAGC | 1.03
31 | CGGGGACCGG | 0.993
32 | ACGCATTACG | 4.05
33 | CGTGGAAAG | 1
34 | AAATAGTACT | 1.01
35 | TATATATAGC | 0.984
36 | TGGGAATATA | 0.983
37 | GTCCGCGGCG | 0.989
38 | TGATCTGCCC | 1.04
39 | AGGAAGCTCG | 0.98
40 | GCTTCATTCT | 0.969
41 | TGTTGACACA | 1.02
42 | CGATCTAATG | 0.966
43 | TGCCCGAAGG | 0.976
44 | GGTATCCTCG | 0.993
45 | GAGGGCGTAC | 1.05
46 | GGTCATCCGG | 1
47 | CACTACATTT | 1.07
48 | GGTGTACCA | 0.958
49 | AGGCAGAGCA | 0.979
50 | CGGGGTTCAG | 1.01
51 | AGGCCCGGTT | 1.01
52 | CTGAGGTGAG | 0.994

Row | Sequence | switch fluorescence ratio
53 | TTAATAATGC | 1.29
54 | GTAGGGTGAA | 1
55 | GTGTTACGGT | 0.962
56 | CTACCAATAA | 5.07
57 | TCTGTTCCG | 1.01
58 | CTATAAGCCC | 0.977
59 | TTGATCCGAA | 1.05
60 | TTATATAGCT | 1.06
61 | AGCCGGAGTT | 1.03
62 | GAGTATTTCG | 0.949
63 | CGGGCAGTGG | 1.02
64 | GATCAATTCG | 0.984
65 | GACGTAACGT | 1.06
66 | GACTGATATG | 0.991
67 | TAGTACGATG | 1.03
68 | GTTCATACCG | 1.01
69 | CTGACAACCT | 2.23
70 | ACACGAGAAG | 1.04
71 | AGATGAGGCT | 1.01
72 | CCGCTTATGA | 4.79
73 | AATAAAACCA | 0.996
74 | AGGTCGTAGG | 0.983
75 | TATAGATAG | 1.01
76 | GTACAGTGTT | 1.01
77 | GCGATGCGGT | 1.23
